About 50,000 (12%) of roughly 420,000 compounds were called active. This list was built around the results that the source calls inconclusive (neither active nor inactive); the mix of calls is not that of the screen. The call rests on the fitted dose curve; in most records, active means well fitted inhibition curve with a large enough effect; inconclusive means small, poorly fitted or top-dose-only effect; inactive means flat fitted curve, though single readings scatter. Potencies of inconclusive entries are left out as doubtful fits.
Assay: qHTS for Inhibitors of human tyrosyl-DNA phosphodiesterase 1 (TDP1): qHTS in cells in presence of CPT; further: nearly all actives have a fitted effect of over 55% in size
Details: chicken DT40 Tdp1-/-;hTDP1 cells + 20 nM CPT, ATP luminescence, 48 h; activity change, negative = growth inhibition: at 46.2 µM (top of the series)
In short: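 Chicken DT40 Tdp1-/- cells complemented with human TDP1, 400 cells/well, exposed to compounds plus 20 nM camptothecin for at least 48 h at 37 C; viability read as ATP content by CellTiter-Glo luminescence.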
On the % scale 0 is the no-effect control and ±100 the full control effect; potency means the concentration at half of the fitted maximal effect; tags describe the fitted curve by direction and shape.

Question: Which Potency does the source give for `CC1(C(=O)Nc2ccc3c(c2)OCCO3)CCN1C(=O)C1(c2ccc(Cl)cc2)CC1` (stereo unspecified) here?
Answer: Its Potency is inconclusive [inhibitor, single point].

Question: Which Potency does the source give for `CCC1=NN(C(=O)c2ccc(C)cc2)C(O)(c2ccc(Br)cc2)C1` (stereo unspecified) here?
Answer: The Potency was inconclusive [inhibitor, partial curve].

Question: Which Potency does the source give for `CCOc1ccc2nc(N(Cc3cccnc3)C(=O)c3cccs3)sc2c1` here?
Answer: The Potency was “inactive”.

Question: For `CCC(C)(C)C1CCC(=NNC(=O)c2ccoc2C)CC1` (stereo unspecified), which Potency is on record?
Answer: The Potency was “inactive”.

Question: With `COC(=O)c1[nH]c2ccccc2c1NS(=O)(=O)c1ccc(F)c(C)c1` as the compound, how does the activity change, negative = growth inhibition read?
Answer: Its activity change, negative = growth inhibition is inconclusive: -30.6% [inhibitor].

Question: With `CC(NC(=O)c1cc(-c2ccccn2)nc2ccc(Cl)cc12)C1CCCO1` (stereo unspecified) as the compound, how does the Potency read?
Answer: The Potency was “inactive”.

Question: With `Cc1ccc2c(c1)C(c1ccccc1)N(C(=O)COc1ccc(Cl)cc1Cl)CC(=O)N2` (stereo unspecified) as the compound, how does the Potency read?
Answer: The Potency was active: 20.6 µM.

Question: With `Cc1ccc(-n2nc(C)c3c(C(=O)Nc4ccccc4C(F)(F)F)cc(C)nc32)cc1` as the compound, how does the Potency read?
Answer: Its Potency is inconclusive [inhibitor, single point].

Question: For `CC(/C=N/n1c(-c2ccccn2)n[nH]c1=S)=C\c1ccccc1`, which Potency is on record?
Answer: Its Potency is “inactive”.

Question: With `COc1cc(CN2CCCCCC2)cc(OC)c1OC` as the compound, how does the Potency read?
Answer: The Potency was “inactive”.

Question: For `COc1ccc2cc(-c3cccnc3)ncc2c1`, which Potency is on record?
Answer: Its Potency is inconclusive [inhibitor, partial curve].

Question: With `COc1ccc(NC(=S)NCc2ccccc2Cl)c(OC)c1` as the compound, how does the Potency read?
Answer: The Potency was inconclusive [inhibitor, single point].

Question: With `COc1ccccc1CNS(=O)(=O)c1ccc2c(c1)N(C(C)=O)CC(C)S2` (stereo unspecified) as the compound, how does the Potency read?
Answer: Its Potency is “inactive”.

Question: For `O=C(Nc1ccccc1N1CCCCC1)C1=COCCO1`, which Potency is on record?
Answer: The Potency was inconclusive [inhibitor, partial curve].

Question: With `CCCCN1C(=O)C(O)(CC(=O)c2ccc(CC)cc2)c2cc(Br)ccc21` (stereo unspecified) as the compound, how does the Potency read?
Answer: The Potency was inconclusive [inhibitor, single point].

Question: Which Potency does the source give for `CC(C)(C)c1cc(CSC(=S)NC2CCS(=O)(=O)C2)c(Br)c(C(C)(C)C)c1` (stereo unspecified) here?
Answer: The Potency was active: 6.51 µM.

Question: Which Potency does the source give for `Cc1ccc(S(=O)(=O)NC(=O)Nc2nccs2)cc1` here?
Answer: Its Potency is “inactive”.

Question: With `O=C(Nc1nc(-c2ccc(Oc3ccccc3)cc2)cs1)C1=COCCO1` as the compound, how does the Potency read?
Answer: Its Potency is inconclusive [inhibitor, single point].

Question: For `COc1ccc(C(=O)C2CCCN(Cc3cccn3-c3nccs3)C2)cc1F` (stereo unspecified), which Potency is on record?
Answer: The Potency was active: 23.1 µM.

Question: Which Potency does the source give for `COc1ccc(C2=CCN3CCCCC3C2)c(-c2ccc(OC)c(OC)c2)c1` (stereo unspecified) here?
Answer: Its Potency is inconclusive [inhibitor, partial curve].

Question: Which Potency does the source give for `COc1ccc(NC(=O)c2cc([N+](=O)[O-])ccc2NC(=O)CNCc2ccccn2)c(OC)c1` here?
Answer: Its Potency is inconclusive [inhibitor, partial curve].

Reference: PubChem BioAssay AID686979 (National Center for Advancing Translational Sciences (NCATS), 2013)
